Assay [1] addresses Fused in sarcoma (FUS) (UniProt P35637). Description: turbidity (OD at 600 nm); 1.8 uM FUS with 2 uM PAR-PARP1 (WT, Y986S or Y986H), 4-16 mM Mg2+; 100 mM NaCl, 20 mM HEPES-NaOH pH 7.5, 300 mM urea, 30 C; 1,6-hexanediol (2.8-15%) lowers the turbidity in part; both purified.
The target is the same in assay [2]. In words: dynamic light scattering; 10 uM FUS titrated with 50-1000 nM PAR-PARP1 at submillimolar cation (0.5 mM Mg2+, 0.1 mM Mn2+, 0.5 mM Ca2+, 0.4 mM Spd3+ or 0.1 mM Spn4+; mutants: 0.5 mM Mg2+); 25 mM HEPES-NaOH pH 7.5, 200 mM NaCl, 300 mM urea, 1 mM DTT; assemblies only at substoichiometric PAR-PARP1, they disappear at higher PAR-PARP1; both purified.
Assay [3] shares this target. In words: dynamic light scattering; as a3, after addition of EDTA (5-30 mM) to the cation-stabilised FUS-PAR-PARP1 mixture; both purified.
Assay [4] shares this target. Description: turbidity (OD at 600 nm); as a9, after addition of 30 mM EDTA; both purified.
For assay [5] the target is unchanged. In words: dynamic light scattering; low FUS-to-PAR-PARP1 molar ratio (3:1 to 1:1; 4-5 uM FUS with 1.5-1.8 uM PAR-PARP1^WT, or 1.8 uM FUS with 2 uM mutant PAR-PARP1), millimolar cation (2 mM Mn2+, 12.5 mM Mg2+, 7 mM Ca2+, 12 mM Spd3+ or 2.3 mM Spn4+; mutants: 12.5 mM Mg2+); DLS buffer; both purified.
Assay [6] shares this target. In words: atomic force microscopy; 30 nM PARP1^WT or PARP1^Y986H, 12.5 nM damaged pBR, 0.3 mM NAD+, 5 mM MgCl2, then 400 nM FUS, 37 C; 12.5 mM HEPES-NaOH pH 8.0, 12.5 mM NaCl, 1 mM DTT, 100 mM urea; adsorbed on mica with putrescine, imaged in air; both purified.
The target is the same in assay [7]. Description: condition: only without added cations (10 uM FUS, 60-540 nM PAR-PARP1); dynamic light scattering; 10 uM FUS mixed with 60-540 nM PAR-PARP1 (60-250 nM PAR-PARP1^Y986H), high FUS-to-PAR-PARP1 molar ratio, no cations added; 25 mM HEPES-NaOH pH 7.5, 200 mM NaCl, 300 mM urea, 1 mM DTT; read-out: hydrodynamic radius of higher-order assemblies; both purified.

Amino acid sequences for entries named in this document (tags omitted). A change or cut given only in a name is not applied to a line headed by its entry.
UniProt P35637: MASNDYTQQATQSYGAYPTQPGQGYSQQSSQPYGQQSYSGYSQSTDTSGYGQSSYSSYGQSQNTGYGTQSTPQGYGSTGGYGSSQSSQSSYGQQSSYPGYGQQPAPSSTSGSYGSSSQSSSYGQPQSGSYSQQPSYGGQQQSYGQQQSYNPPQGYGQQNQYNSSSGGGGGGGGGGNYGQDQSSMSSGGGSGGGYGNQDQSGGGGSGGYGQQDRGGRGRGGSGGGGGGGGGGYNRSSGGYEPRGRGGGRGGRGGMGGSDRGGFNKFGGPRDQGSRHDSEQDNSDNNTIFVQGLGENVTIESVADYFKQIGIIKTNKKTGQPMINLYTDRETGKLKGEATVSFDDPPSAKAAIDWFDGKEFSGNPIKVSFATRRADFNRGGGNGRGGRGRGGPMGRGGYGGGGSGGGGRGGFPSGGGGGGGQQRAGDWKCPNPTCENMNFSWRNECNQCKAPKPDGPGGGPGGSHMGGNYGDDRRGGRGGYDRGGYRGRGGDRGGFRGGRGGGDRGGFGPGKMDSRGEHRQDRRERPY
UniProt P09874: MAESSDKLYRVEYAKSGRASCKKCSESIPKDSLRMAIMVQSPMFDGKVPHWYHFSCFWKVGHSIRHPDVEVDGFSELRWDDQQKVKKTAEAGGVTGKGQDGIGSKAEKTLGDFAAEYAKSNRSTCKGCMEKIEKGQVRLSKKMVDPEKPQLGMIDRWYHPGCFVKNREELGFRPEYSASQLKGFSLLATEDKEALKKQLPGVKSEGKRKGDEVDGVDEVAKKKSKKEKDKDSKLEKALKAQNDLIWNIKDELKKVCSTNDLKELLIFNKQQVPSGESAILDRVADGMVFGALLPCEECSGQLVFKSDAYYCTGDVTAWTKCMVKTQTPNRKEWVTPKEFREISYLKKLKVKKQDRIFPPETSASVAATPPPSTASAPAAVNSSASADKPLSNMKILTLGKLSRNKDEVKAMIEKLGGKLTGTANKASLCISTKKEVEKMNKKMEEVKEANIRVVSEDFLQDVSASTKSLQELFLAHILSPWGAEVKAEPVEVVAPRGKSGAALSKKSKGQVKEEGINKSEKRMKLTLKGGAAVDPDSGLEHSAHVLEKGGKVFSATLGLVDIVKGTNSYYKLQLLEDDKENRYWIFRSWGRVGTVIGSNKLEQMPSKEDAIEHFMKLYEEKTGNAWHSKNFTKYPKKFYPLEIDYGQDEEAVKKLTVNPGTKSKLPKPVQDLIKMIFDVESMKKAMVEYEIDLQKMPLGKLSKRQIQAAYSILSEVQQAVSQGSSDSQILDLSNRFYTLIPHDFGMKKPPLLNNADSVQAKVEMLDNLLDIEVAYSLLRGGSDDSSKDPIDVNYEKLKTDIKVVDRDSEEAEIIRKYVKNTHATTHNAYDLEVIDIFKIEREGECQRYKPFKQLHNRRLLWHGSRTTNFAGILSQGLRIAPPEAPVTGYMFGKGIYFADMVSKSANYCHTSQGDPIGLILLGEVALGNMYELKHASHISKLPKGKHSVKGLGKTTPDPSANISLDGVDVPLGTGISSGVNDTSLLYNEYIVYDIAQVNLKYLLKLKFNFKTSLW

For assay [8] the target is unchanged. In words: dynamic light scattering; 10 uM FUS mixed with 60-540 nM PAR-PARP1 (60-250 nM PAR-PARP1^Y986H), high FUS-to-PAR-PARP1 molar ratio, no cations added; 25 mM HEPES-NaOH pH 7.5, 200 mM NaCl, 300 mM urea, 1 mM DTT; read-out: hydrodynamic radius of higher-order assemblies; both purified.

No constants are given. Whether binding was seen depends on the method and setting. Some binding calls cover weakened binding; strength is not graded here.

As for “poly(ADP-ribosyl)ated wild-type PARP1 (PAR-PARP1^WT) (from UniProt P09874 1-1014) (enzyme)”, the binding entry was “binds” in assay [1]; “binds” in assay [2]; “no binding (condition: with EDTA (5-30 mM))” in assay [3]; “no binding (condition: with 30 mM EDTA)” in assay [4]; “binds” in assay [5]; “binds” in assay [6]. Also, the binding entry in assay [7] is on record as “no binding”.
Consider “poly(ADP-ribosyl)ated PARP1^Y986S, (short PAR)-PARP1^Y986S (from UniProt P09874 1-1014) (enzyme)”, for which the binding entry in assay [1] is “binds”; in assay [2] it was “binds”; in assay [8] it was “no binding (condition: without added cations)”; in assay [4] it was “no binding (condition: with 30 mM EDTA)”; in assay [5] it was “binds”.

Source of the values: publication PMC11594298.
